# Read counts are not given, so values of variants with three or more changes are uncertain.
# B1: LINE1-mini (parent)
# chain: GGCAGAGCUCAACACAGCGUGGCAAAGUGGCUGUGGCUAGACUGCC
# Variants of: B1
# Experiment: self-cleavage, relative activity (ratio to wild type); higher = more cleavage; in vitro, sequencing; the parent is a self-cleaving ribozyme
row,Variant,self-cleavage
1,GGCAGACCUCAACACAGCGUGGUAAAUUGGCUGUGGCUAGACUGCC [G7C C23U G27U],0.06
2,GGCAGACCUCAACACAGCGUUGCAGAGUGGCUGUGGCUAGACUGCC [G7C G21U A25G],0.04
3,GGCAGACCGCAACACCGCGUGGCAAAGUGGAUGUGGCUAGACUGGC [G7C U9G A16C C31A C45G],0.14
4,GGCAGACUUCAACACAGCGUGACAAAGCGGCUGUGGCUAGACUGCC [G7C C8U G22A U28C],0.02
5,GGCAGACCUCAACACAGCGAGGCAAAGUGGCUGUAGCUAGACUGCC [G7C U20A G35A],0.07
6,GGCAGACCUCAACACAACGUGGCAAAGGGGCUGUGGCUAGACUGCC [G7C G17A U28G],0.05
7,GGCAGACCUCAACACAGCGUGGUAAAGUGGCUGCGGCUAGACUGCC [G7C C23U U34C],0.01
8,GGCAGACCUCAACACAGAGUGGCAAAGUGGCUGUGGCUAUACUGCC [G7C C18A G40U],0.05
9,GGCAGACCUCAACACAACGUGGCAAAGUGGCUAUGGCUAGACUGCC [G7C G17A G33A],0.02
10,GGCAGACCUCAACACAGCGUGGCAAAGUGACUGUGGCUAGAAUUCC [G7C G30A C42A G44U],0.1
11,GGCAGACCUCAACACAGCGUGGCAAAGCGGCUGUGGCUAGACUGCA [G7C U28C C46A],0.06
12,GGCAGACCUCAACACAGCGUGGAAAAGUGGUUGUGGCUAGACUGCC [G7C C23A C31U],0.05
13,GGCAGACCUCAACACAGAGUGACAAAGUGGCUGUGGCUAGACUGCC [G7C C18A G22A],0.31
14,GGCAGACCUCAACACAGCGUGGCAAAAUGACUGUGGCUAGACUGCC [G7C G27A G30A],0.06
15,GGCAGACCUCAACACAGCGUGACAAAGUGGCUGUGGCUAGAGUGAC [G7C G22A C42G C45A],0.04
16,GGCAGACCUCAACACAGCGUGGCAAAGCGGCUGAGGCUUGAUUGCC [G7C U28C U34A A39U C42U],0.04
17,GGCAGACCUCAACACAGCGUGUCAAAGUGGCUGUGGCUAUACUGCC [G7C G22U G40U],0.6
18,GGCAGACUUAAACACAGGGUGGCAAAGUGGCUGUGGCUAGACUACC [G7C C8U C10A C18G G44A],0.05
19,GGCAGACCUCAACACAACGUAGCAAAGUGGCUGUGGCUAGACUGCC [G7C G17A G21A],0.07

row,Variant,self-cleavage
1,GGCAGACCUCAACACAGCGUGGCAAACUGGCUGUGGCGAGACUGCC [G7C G27C U38G],0.01
2,GGCAGACCUGAACACAGCGUCGAAAAGUGGCUGUGGCUAGACUGCC [G7C C10G G21C C23A],0.02
3,GGCAGACCUCAACACAGCGUUGCAAAGUGGCUGUGGCUACAUUGCC [G7C G21U G40C C42U],0.06
4,GGCAGACCUCAACACAGCGUGGCAAAGUCGCUGUGGAUAGACUGCC [G7C G29C C37A],0.05
5,GGCAGACCUGAACACAGCUUGGCAAAGUUGGUGUGGCUAGACAGCC [G7C C10G G19U G29U C31G U43A],0.02
6,GGCAGACCUGGACAAAGCGUGGCAAAUUGGCUGUGGCUAGACUGCC [G7C C10G A11G C15A G27U],0
7,GGCAGACCCCUACACAGCGUGGCAAAGUGGCUGUGGCUAGACUGCC [G7C U9C A11U],0.03
8,GGCAGACCUCAACACAGCGUGACUAAGUGGCUGUGGCUAGACUGCC [G7C G22A A24U],0.04
9,GGCAGACUUCAACACAUCGUGGCAAAGUGGCUGUGGCUAGACUGCC [G7C C8U G17U],0.19
10,GGCAGACCUCAACACAGCGUGGGAAAGUGGGUGUGGCUAGACUGCC [G7C C23G C31G],0.01
11,GGCAGACCUCAACACAGCGUGGCAAAGAGGCUGUGGCUCGACUACC [G7C U28A A39C G44A],0.23
12,GGCAGACCUCAACACAGCGUGGCAAAGUGGCUGUAGCUAGACUCCC [G7C G35A G44C],0.29
13,GGCAGACCUCAACACAGCGUGGCAAAGUGUCUAUGGCUAGACUGCC [G7C G30U G33A],0.18
14,GGCAGACCUCAACACAGCGUGGCAAAGUUGCCGUGGCUAGACUGCC [G7C G29U U32C],0.04
15,GGCAGACCUCAACACAGCGCAGCAAAGUGGCUGUGGCUAGACUGCC [G7C U20C G21A],0.05
16,GGCAGACCUCAACACAGUGUAGCAAAGUGGCGAUGACUAGACUGCC [G7C C18U G21A U32G G33A G36A],0.06
17,GGCAGACCUCAACACACGGUGGCACAGUGGCUGGGGCUAGACUGCC [G7C G17C C18G A25C U34G],0
18,GGCAGACCUCAACACAUCGUGGCAAAGUGGCUGAGGCUAGACUGCA [G7C G17U U34A C46A],0.04
19,GGCAGACCUCAACAGAGUGUGGCAAAGUGGCUGUGGCUAGACUGCC [G7C C15G C18U],0.03

row,Variant,self-cleavage
1,GGCAGACCACAACAUAGCGUGGCAAAGUGGCUGUGGCUAGACUGCC [G7C U9A C15U],0.04
2,GGCAGACCUUAAAACAUCGUGGCAAAGUGUCUGUGGCUAGACUGCC [G7C C10U C13A G17U G30U],0.02
3,GGCAGACCUCAACACAGCGUGGCAAAGCGGCUGUGUCUAGACUGCC [G7C U28C G36U],0.01
4,GGCAGACCUCAACACAGCGUGGCAAAGUGGAUGUGGCUAGAAUGCC [G7C C31A C42A],0.06
5,GGCAGACCACAACACAGCGUGGCAAAGUGGCUGUGGCUAGACUGCA [G7C U9A C46A],0.46
6,GGCAGACCUCAAAGCAGCAGGGCAAAGUGGCUAUGGCUAGACUGCC [G7C C13A A14G G19A U20G G33A],0.03
7,GGCAGACCUCAAUACAGCGUGGCAAAGUGGCUGUGGCUAGUCUGCC [G7C C13U A41U],0.52
8,GGCAGACCCCAACAUAGCGUGGCAAAGUGGCUGUGGCUAGCCUGCC [G7C U9C C15U A41C],0.02
9,GGCAGACCUCAACAAAGCCUGGCAAAUUGGCUGUGGCCAGACUGCC [G7C C15A G19C G27U U38C],0.59
10,GGCAGACCUCAACACAGCGUGGCAAAGAGGCUGUGGCUAGUCUGCC [G7C U28A A41U],0.17
11,GGCAGACCUCAACACAGCGUGGCAAAGUGGCUAGGGCUAGACUACC [G7C G33A U34G G44A],0.01
12,GGCAGACCUCAACAAAGCGUGUCAAAGUGGCAGUGGCUAGACUGCC [G7C C15A G22U U32A],0.12
13,GGCAGACCUCAACAAAGCGUGGCACAGUGGCUGCGGCUAGCCUGCC [G7C C15A A25C U34C A41C],0.01
14,GGCAGACCUCAACACAGCGUGGCAAAGUGACUGUGGCUAGACUUCC [G7C G30A G44U],0.25
15,GGCAGACCUCAACACAGAAUGACAAAGUGGCUGUGGCUAGCCUGCC [G7C C18A G19A G22A A41C],0.02
16,GGCAGACCUCAACAGAGCGUGGCAACGUGCCCGUGGCUAGACUGCC [G7C C15G A26C G30C U32C],0.03
17,GGCAGACCUCAACACACCGCGGCAAUGUGGCUGUGGCUAGACUGCC [G7C G17C U20C A26U],0.08
18,GGCAGACCUCAACACAGCGUGGCAAAGUGGCUGUGGCUAGACUGUU [G7C C45U C46U],0.05

# — the RNAGym collection of RNA variant scans (doi:10.7554/elife.90254)
